Variants at the background level are over-represented here.
B1: TPR 5TU (parent)
chain: GGAUCUUCUCGAUCUAACAAAAAAGACAAAUCUGCCACAAAGCUUGAGAGCAUCUUCGGAUGCAGAGGCGGCAGCCUUCGGUGGCGCGAUAGCGCCAACGUUCUCAACUAUGACACGCAAAACGCGUGCUCCGUUGAAUGGAGUUUAUCAUG

Variants of: B1
Assay: polymerase ribozyme fitness, log enrichment relative to wild type (log ratio); higher = more active; in vitro selection for triplet polymerase activity
Method in brief: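 Mutant libraries were PCR-built and transcribed for each subunit of a heterodimeric triplet polymerase ribozyme and selected for one round in triplicate at −7 °C, frozen, before gel excision of extended constructs and streptavidin-bead capture. Input and output libraries were Illumina-sequenced, keeping genotypes with ≥10 input reads and ≥1 read per output. Fitness is a logarithmic ratio of genotype to wild-type enrichment, in base 2, using inverse-variance-weighted replicate averages.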

| Variant | polymerase ribozyme fitness (log ratio) |
| --- | --- |
| GGAUCUUCUCGAUCUAACAAAAAAGACAAAUCUGCCACAAAGCUUGAGAGCAUCUUCGGAUGCAGAGGCGGCAGCCUUCGGUGGCGCGAUCGCGCCAACGUUCUCAUCUAUGACACGCAAAACGCGUGCUCCGUUGAAUGGAGUUUAUCAUG [A91C A107U] | ≤ -4.2 |
| GGAUCUUCUCGAUCUAACAAAAAAGACAAAUCUGCCACAAAGCUUGAGAGCAUCUUCGGAUGCAGAGGCGGCAGCCUUCGGUGGCGCGAUCGCGCCAUCGUUCUUAACUAUGACACGCAGAACGCGUGCUCCGUUGAAUGGAGUUUAUCAUG [A91C A98U C105U A120G] | ≤ -4.2 |
| GGAUCUUCUCGAUCUAACAAAAAAGACAAAUCUGCCACAAAGCUUGAGAGCAUCUUCGGAUGCAGAGGCGGCAGCCUUCGGUGGCGCGAGAGCGCAAACGUUCUCAACUAUGACACGAAAAACGCGUGCUCCGUUGAAUGGAGUUUAUCAUG [U90G C96A C118A] | ≤ -4.2 |
| GGAUCUUCUCGAUCUAACAAAAAAGACAAAUCUGCCACAAAGCUUGAGAGCAUCUUCGGAUGCAGAGGCGGCAGCCUUCGGUGGCGCGAUCGCGCCAACGUUCUCAACUAUGACACGCAAAACGCGUGCUCCGUUGAAUGAAGUUUAUCAUG [A91C G141A] | ≤ -4.2 |
| GGAUCUUCUCGAUCUAACAAAAAAGACAAAUCUGCCACAAAGCUUGAGAGCAUCUUCGGAUGCAGAGGCGGCAGCCUUCGGUGGCGCGAUCGCGCAAACGUUCUCAACUAUGACACGCAAAACGCAUGCUCCGUUGAAUGGAGUUUAUCAUG [A91C C96A G126A] | ≤ -4.2 |
| GGAUCUUCUCGAUCUAACAAAAAAGACAAAUCUGCCACAAAGCUUGAGAGCAUCUUCGGAUGCAGAGGCGGCAGCCUUCGGUGGCGCGAUGGCGCAAACUUUCUCAACUAUGACACGCCAAACGCGUGCUCCGUUGAAUGGAGUUUAUCAUG [A91G C96A G100U A119C] | ≤ -4.2 |
| GGAUCUUCUCGAUCUAACAAAAAAGACAAAUCUGCCACAAAGCUUGAGAGCAUCUUCGGAUGCAGAGGCGGCAGCCUUCGGUGGCGCGAUGGCGCCAACGUUCUCAACUAUGCCACGCAAAACGCGCGCUCCGUUGAAUGGAGUUGAUCAUG [A91G A113C U127C U146G] | ≤ -4.2 |
| GGAUCUUCUCGAUCUAACAAAAAAGACAAAUCUGCCACAAAGCUUGAGAGCAUCUUCGGAUGCAGAGGCGGCAGCCUUCGGUGGCGCGAGACCGCCAACGUUCUCAACUAUGACACGCAAAACGCGUGCUCCGUUGAAUGGAGUUAAUCAUG [U90G G92C U146A] | ≤ -4.2 |
| GGAUCUUCUCGAUCUAACAAAAAAGACAAAUCUGCCACAAAGCUUGAGAGCAUCUUCGGAUGCAGAGGCGGCAGCCUUCGGUGGCGCGACAGCGCCAACGUUCUCAACUAUGACACGCAAAACGCGUGCUCCGUUGAAUGGAGUUUAGCAUG [U90C U148G] | ≤ -4.2 |
| GGAUCUUCUCGAUCUAACAAAAAAGACAAAUCUGCCACAAAGCUUGAGAGCAUCUUCGGAUGCAGAGGCGGCAGCCUUCGGUGGCGCGAGAGCGCAAACGUUCUCAACUAUGACACGCAAAACGCGUGCUGCGUUGAAUGGAGUUUAUCAUG [U90G C96A C131G] | ≤ -4.2 |
| GGAUCUUCUCGAUCUAACAAAAAAGACAAAUCUGCCACAAAGCUUGAGAGCAUCUUCGGAUGCAGAGGCGGCAGCCUUCGGUGGCGCGAGAGCGCCAACGUUCUCCACUAUGACACGCAAAACGCGUGCUCCCUUGAAUGGAGUUUAUCAUG [U90G A106C G133C] | ≤ -4.2 |
| GGAUCUUCUCGAUCUAACAAAAAAGACAAAUCUGCCACAAAGCUUGAGAGCAUCUUCGGAUGCAGAGGCGGCAGCCUUCGGUGGCGCGAGAGCGCCAACGUUCUCAACUAUGACACGCAAAACGCGUGCUCCGUUGAAUCGAGUUUAUCAUG [U90G G140C] | ≤ -4.2 |
| GGAUCUUCUCGAUCUAACAAAAAAGACAAAUCUGCCACAAAGCUUGAGAGCAUCUUCGGAUGCAGAGGCGGCAGCCUUCGGUGGCGCGAUCGCGCCAACGUUCUCGACUAUGACACGCAAAACGCGUGCUCCGUUGAAUGGAGUUUAUCAUG [A91C A106G] | ≤ -4.2 |
| GGAUCUUCUCGAUCUAACAAAAAAGACAAAUCUGCCACAAAGCUUGAGAGCAUCUUCGGAUGCAGAGGCGGCAGCCUUCGGUGGCGCGAUCGCGUAAACGUUCUCCACUAAGACACGCAAAACGCGUGCUCCGUUGAAUGGAGUUUAUCCUG [A91C C95U C96A A106C U111A A150C] | ≤ -4.2 |
| GGAUCUUCUCGAUCUAACAAAAAAGACAAAUCUGCCACAAAGCUUGAGAGCAUCUUCGGAUGCAGAGGCGGCAGCCUUCGGUGGCGCGAGAGCGCCAACGUUCUCAACUAUGACACGCAAAACGCGUGCUCCGUUGAAUGGACUUUAUCAUG [U90G G143C] | ≤ -4.2 |
| GGAUCUUCUCGAUCUAACAAAAAAGACAAAUCUGCCACAAAGCUUGAGAGCAUCUUCGGAUGCAGAGGCGGCAGCCUUCGGUGGCGCGAGAGCGCCAACGUUCUCAACUAUGACACGCUAAACGCGUGCGCCGUUUAAUGGAGUUUAUCAUG [U90G A119U U130G G136U] | ≤ -4.2 |
| GGAUCUUCUCGAUCUAACAAAAAAGACAAAUCUGCCACAAAGCUUGAGAGCAUCUUCGGAUGCAGAGGCGGCAGCCUUCGGUGGCGCGAUCGCGCCAACGUGCUCAACUAUGACACGCAAAACGCGUGCUCCGUUGAAUGGAGUUUAUCUUG [A91C U102G A150U] | ≤ -4.2 |
| GGAUCUUCUCGAUCUAACAAAAAAGACAAAUCUGCCACAAAGCUUGAGAGCAUCUUCGGAUGCAGAGGCGGCAGCCUUCGGUGGCGCGAUGGAGCCAACGUUCUCAACUAUGACACGCAAAACGCGUGCUCCGUUGAAUGGAGUUUAUCAUG [A91G C93A] | ≤ -4.2 |
| GGAUCUUCUCGAUCUAACAAAAAAGACAAAUCUGCCACAAAGCUUGAGAGCAUCUUCGGAUGCAGAGGCGGCAGCCUUCGGUGGCGCGAUCGCGCCAACGUUCUCAACUAUGACACGCAAAACGUGUGCUCCGUUGAAUGGAGUUUAUCAUG [A91C C125U] | ≤ -4.2 |

| Variant | polymerase ribozyme fitness (log ratio) |
| --- | --- |
| GGAUCUUCUCGAUCUAACAAAAAAGACAAAUCUGCCACAAAGCUUGAGAGCAUCUUCGGAUGCAGAGGCGGCAGCCUUCGGUGGCGCGAUCGCGCCAACGGUCUCAACUAUGACACGCAAAACGCGUGCUCCGUUGAAUGGAGUUUAUCCUG [A91C U101G A150C] | ≤ -4.2 |
| GGAUCUUCUCGAUCUAACAAAAAAGACAAAUCUGCCACAAAGCUUGAGAGCAUCUUCGGAUGCAGAGGCGGCAGCCUUCGGUGGCGCGAUCGUGCCAACGUUCUCAACUAUGACACGCAAAACGGGUGCUCCGUUGAAUGGAGUUUAUCAUG [A91C C93U C125G] | ≤ -4.2 |
| GGAUCUUCUCGAUCUAACAAAAAAGACAAAUCUGCCACAAAGCUUGAGAGCAUCUUCGGAUGCAGAGGCGGCAGCCUUCGGUGGCGCGAGAGCGCCAACGUUCUCAACUAUGACACGCAAAACGCGCGCUCCGUUGAAUGGAGUUUAUCAUG [U90G U127C] | ≤ -4.2 |
| GGAUCUUCUCGAUCUAACAAAAAAGACAAAUCUGCCACAAAGCUUGAGAGCAUCUUCGGAUGCAGAGGCGGCAGCCUUCGGUGGCGCGAUCGCGCCAACGUUCUCAACUAUGACACGCAAAACGCAUGCUCCGUUGAAUGGAGUUUAUCAUG [A91C G126A] | -4.03 |
| GGAUCUUCUCGAUCUAACAAAAAAGACAAAUCUGCCACAAAGCUUGAGAGCAUCUUCGGAUGCAGAGGCGGCAGCCUUCGGUGGCGCGAUCGCGCCAACGUUCUCAACUAUGACACGUAAAACGCGUGCUCCGUUGAAUGGAGUUUAUCAUG [A91C C118U] | ≤ -4.2 |
| GGAUCUUCUCGAUCUAACAAAAAAGACAAAUCUGCCACAAAGCUUGAGAGCAUCUUCGGAUGCAGAGGCGGCAGCCUUCGGUGGCGCGAUCGCGCCAACGUUCUCAACUAUGACACGGAAAACGCGUGCUCCGUUGAAUGGAGUUUAUCAUG [A91C C118G] | ≤ -4.2 |
| GGAUCUUCUCGAUCUAACAAAAAAGACAAAUCUGCCACAAAGCUUGAGAGCAUCUUCGGAUGCAGAGGCGGCAGCCUUCGGUGGCGCGAGAGCGCCAACGUUCUCAACUAUGACAGGCAAAACGCGUGCUCCGUUGAAUGGAGUUUAUCAUG [U90G C116G] | -3.78 |
| GGAUCUUCUCGAUCUAACAAAAAAGACAAAUCUGCCACAAAGCUUGAGAGCAUCUUCGGAUGCAGAGGCGGCAGCCUUCGGUGGCGCGAUGGCGCCGACGUUCUCAACGAUGACACGCAAAACGCGUGCUCCGUUGAAUGGAGUUUAUUAUG [A91G A97G U109G C149U] | ≤ -4.2 |
| GGAUCUUCUCGAUCUAACAAAAAAGACAAAUCUGCCACAAAGCUUGAGAGCAUCUUCGGAUGCAGAGGCGGCAGCCUUCGGUGGCGCGAUCGCGCCAACGUUGUCAACUAUGACUCGCAAAACGCGUGCUCCGUCGAAUGGAGAUUAUCAUG [A91C C103G A115U U135C U144A] | ≤ -4.2 |
| GGAUCUUCUCGAUCUAACAAAAAAGACAAAUCUGCCACAAAGCUUGAGAGCAUCUUCGGAUGCAGAGGCGGCAGCCUUCGGUGGCGCGAGAGCGUCAACGUUCUCAACGAUGACACGCAAAACGCGUGCUCCGUUGCAUGGAGUUUAUCAUG [U90G C95U U109G A137C] | ≤ -4.2 |
| GGAUCUUCUCGAUCUAACAAAAAAGACAAAUCUGCCACAAAGCUUGAGAGCAUCUUCGGAUGCAGAGGCGGCAGCCUUCGGUGGCGCGAGAGCGCCAACGUUCUCAACUAUGACACGCAAAACGCGUGCUCCCUUGAAUGCAGUUUAUCAUG [U90G G133C G141C] | ≤ -4.2 |
| GGAUCUUCUCGAUCUAACAAAAAAGACAAAUCUGCCACAAAGCUUGAGAGCAUCUUCGGAUGCAGAGGCGGCAGCCUUCGGUGGCGCGAUCGCGCCAACGUUCUCAAGUAUGACACGCAUAACGCGUGCUCCGUUGAAUGGAGUUUAUCAUG [A91C C108G A120U] | ≤ -4.2 |
| GGAUCUUCUCGAUCUAACAAAAAAGACAAAUCUGCCACAAAGCUUGAGAGCAUCUUCGGAUGCAGAGGCGGCAGCCUUCGGUGGCGCGAGAUCGCCAAGGUUCUCAACUAUGACACGCAAAACGCGUGCUCCGUUGAAUGGAGUUUAUCUUG [U90G G92U C99G A150U] | ≤ -4.2 |
| GGAUCUUCUCGAUCUAACAAAAAAGACAAAUCUGCCACAAAGCUUGAGAGCAUCUUCGGAUGCAGAGGCGGCAGCCUUCGGUGGCGCGAUCGCGCCAACGUUCUCAACUAUGACACGCACAACGCGUGCUCCGUUGAAUGGAGUUUAUCAUG [A91C A120C] | ≤ -4.2 |
| GGAUCUUCUCGAUCUAACAAAAAAGACAAAUCUGCCACAAAGCUUGAGAGCAUCUUCGGAUGCAGAGGCGGCAGCCUUCGGUGGCGCGAGAGCGCCGACGUUCUCAACUAUGACACGCAAAACGCGUGCUCCGUUGAAUGGAGUUUAUCAUG [U90G A97G] | ≤ -4.2 |
| GGAUCUUCUCGAUCUAACAAAAAAGACAAAUCUGCCACAAAGCUUGAGAGCAUCUUCGGAUGCAGAGGCGGCAGCCUUCGGUGGCGCGAUCGCGCCAACGUUCUCAACUAUGACAAGCAAAACGCGUGCUCCGUUGAAUGGAGUUUAUCAUG [A91C C116A] | ≤ -4.2 |
| GGAUCUUCUCGAUCUAACAAAAAAGACAAAUCUGCCACAAAGCUUGAGAGCAUCUUCGGAUGCAGAGGCGGCAGCCUUCGGUGGCGCGAUCGCGCCAACGUUCUCAACUAUGACACGGAAAACGCGUGCUCCGUUGAAUCGAGUUUAUCAUG [A91C C118G G140C] | ≤ -4.2 |
| GGAUCUUCUCGAUCUAACAAAAAAGACAAAUCUGCCACAAAGCUUGAGAGCAUCUUCGGAUGCAGAGGCGGCAGCCUUCGGUGGCGCGAUCGCGCCAACGUGCUCAACUAUGACACGCAAAACGCGUGCUCCGUUGACUGGAGUUUAUCAUG [A91C U102G A138C] | ≤ -4.2 |
| GGAUCUUCUCGAUCUAACAAAAAAGACAAAUCUGCCACAAAGCUUGAGAGCAUCUUCGGAUGCAGAGGCGGCAGCCUUCGGUGGCGCGAUCGCGCCAACGUUCUCAACGAUGACACGCAAAACGCGUGCUCCGUUGAAUUGAGUUUAUCAUG [A91C U109G G140U] | ≤ -4.2 |

Reference: the RNAGym collection of RNA variant scans (doi:10.1073/pnas.2313332121)
